Laboratory results taken from publication PMC12136788.
Some of the results follow.

T1: UNK ZnF1-3 (human, UniProt Q9C0B0 31-174)
T1 sequence: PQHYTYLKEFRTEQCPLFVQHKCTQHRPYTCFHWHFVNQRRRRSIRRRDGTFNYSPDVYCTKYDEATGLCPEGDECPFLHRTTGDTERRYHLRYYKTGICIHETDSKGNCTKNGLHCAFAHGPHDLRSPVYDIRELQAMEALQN

B1: chr2:48026839:48026840:+_ENSG00000116062_ENST00000540021|hu_hu|hu_hu_hu_mus_False|28_58 (ssRNA)
RNA: GGGAGUUCUACAGUCCGACGAUCAUAGUGAGCCACUAGCGUCCUAAAUCUGGAACAGUGGCGGUCAUCCGAAAACUGACCUAUGAAAAACUUGCCCAGUGAAGUGUCAACAAAGCAAACACCAUACACACGAGUGUGACCAGACAACAGAGGAUUGAGCAUCA
B2: chr2:217001844:217001845:+_ENSG00000079246_ENST00000392132|hu_hu|hu_hu_hu_mus_False|28_108 (ssRNA)
RNA: GGGAGUUCUACAGUCCGACGAUCACCGACUUGAGGAUUAGAUCUUUUGUCAUAAGCAUAUCGGACGAUGGCGACCAUGUUUAACUCAUCCAAAGCAUGAACGAGAGAGGAAAGUGCAACAGCUGCCGCCUCAUCAUCCUUUGCCAACAGAGGAUUGAGCAUCA
B3: chr20:57566945:57566946:+_ENSG00000101158_ENST00000344018|hu_mus|FALSE|FALSE (ssRNA)
RNA: GGGAGUUCUACAGUCCGACGAUCGUGGACAGUCUCGAUAGCCUUUGACGUGGACUUGAGCUCGUCUUUGCCAAUGCUGACCCGCUUGUUCUUCUUCCAGGUCUCAACCACACUGGCAGCGUAAGCCAGGAUGUGGAUGUACUUCAACAGAGGAUUGAGCAUCA
B4: 40752187_40752307_78_3pUTR_ENSG00000182093_ENST00000333781|human|control|control (ssRNA)
RNA: GGGAGUUCUACAGUCCGACGAUCGGACGCUCCUGGCUGUGCUGGGUCCGCUACGGCAGCUCCAUGGGGACCACAACAACAGCGGCGACCGCGCCUGCGCGGUGAAGCCAAGCGCCCCAGAACAGGCGCGCCGACGCGCCUGCGCAACAGAGGAUUGAGCAUCA
B5: chr16:46990815:46990816:-_ENSG00000069345_ENST00000563158|hu_hu|motif|central (ssRNA)
RNA: GGGAGUUCUACAGUCCGACGAUCUCAAAAUGAAGAUGUAAAGCUUUGUGGUUAGUUUAAAUUAUACACUCUGUAGAUACGGUACCAAUUUUAAAAGUUAUACAUAGACCAACAGAUGUCCCUCAGUUCAUCUGGAUUGAUAAGCAACAGAGGAUUGAGCAUCA
B6: 21120498_21121148_3012_CDS_ENSG00000141458_ENST00000269228|human|control|control (ssRNA)
RNA: GGGAGUUCUACAGUCCGACGAUCUAUCACAAUUGGUCUCAUCCAGUCCUUUAGCAGAAGUGGAGAAUAGGAGUUUUUGAAGAAGCGAAACAAACAGCUCUCUGAGGCCUGGACGCUUGUUCCAUCUUCAGCACCUCUGACACACAACAGAGGAUUGAGCAUCA
B7: chr7:2411435:2411436:+_ENSG00000106263_ENST00000360876|hu_hu|FALSE|FALSE (ssRNA)
RNA: GGGAGUUCUACAGUCCGACGAUCGAUGGUUUCUUUCAUCUCGACCACAUCCACAGGUACCUGUUUCUCCCUCAUUCGGAAAAUUUCAAAAUUUGUGACAACACCCUGGGUGCCUUUCGGAGUCCUAUCUACUUUCACACACAACAACAGAGGAUUGAGCAUCA
B8: chr1:220276048:220276049:+_ENSG00000067704_ENST00000302637|hu_hu|hu_hu_hu_mus_True|18_28 (ssRNA)
RNA: GGGAGUUCUACAGUCCGACGAUCGCAAAUUGCCUGGUUGGCGGGAAUUGUCCAAGGCUGGGUGGUCCAAACUAAAACGCUAACAGGGGAUGAGGCAUCUGUAAGAGAUGCCAAUUUUGGAGAAGGCCUCAGGAGGGGGAAUCUCAACAGAGGAUUGAGCAUCA
B9: chr2:61705769:61705770:-_ENSG00000082898_ENST00000401558|hu_mus|FALSE|FALSE (ssRNA)
RNA: GGGAGUUCUACAGUCCGACGAUCUGGGCAUGAAGUAAAAGUUAUCUUAAAAAUGCCGUAAUUUUCAACUUCAUGCAAACUGAAUAAAGAUGACCAAAACAAAAGCUUAAACAAUGAAAGAAUAUUUCACAGAAAAUUUCUUAUCAACAGAGGAUUGAGCAUCA
B10: chr1:120316390:120316391:+_ENSMUSG00000064302_ENSMUST00000049404|mus_hu|FALSE|FALSE (ssRNA)
RNA: GGGAGUUCUACAGUCCGACGAUCUAACAUGGUCUGGUCAUGCUCAAGGUCAGCAGACUUCUGUUUGUCUGAGAAAUAGUCUAUCAGUUCUUGGCCAACCUGCAAUCGUUUCCCCACAUCCUUCUGCAACACCUGCGCCAGGCACAACAGAGGAUUGAGCAUCA
B11: chr14:62194323:62194324:+_ENSG00000100644_ENST00000337138|hu_mus|FALSE|FALSE (ssRNA)
RNA: GGGAGUUCUACAGUCCGACGAUCUCUUUCAUCACAGUAAGAAAAUUUCAUAUCGAGGCUGUGUCGACUGAGAAAUGUCUUGCUAUCUAAAGGAAUUUCAAUAUUUGACGGAUGAGGAAUGGGUUCACAAAUCAGCACCAAGCACAACAGAGGAUUGAGCAUCA
B12: 42054442_42057085_7686_CDS_ENSG00000174197_ENST00000570161|human|control|control (ssRNA)
RNA: GGGAGUUCUACAGUCCGACGAUCUUCUGUGGCCUGGUCUUUUUUUCUGGAAAGAAUCAAAGGUUUCCCCCUCCUGUUAUUUAUAAACAUCUGUCCAAGAUCUACAGAUGAUGCAGAAGAUCCUUCCUGCUGUUUGCUAAUUCUCAACAGAGGAUUGAGCAUCA
B13: chr22:19452774:19452775:-_ENSG00000070010_ENST00000399523|hu_hu|hu_hu_hu_mus_False|18_98 (ssRNA)
RNA: GGGAGUUCUACAGUCCGACGAUCCUUCUCAUUGUAGUUGAUGGCAAUCACAUCUCCAGUCGUCAGACAGGCGAAGUUUCUCAAUGCAUUUUCUAAUACCGCUUUAGGGUUGGUAAUGUCCAGGAAGUCUGGGCUCUGAGGCUGCAACAGAGGAUUGAGCAUCA
B14: chr3:10015032:10015033:+_ENSMUSG00000027533_ENSMUST00000029046|mus_mus|mus_mus_mus_hu_True|28_78 (ssRNA)
RNA: GGGAGUUCUACAGUCCGACGAUCGUUUUUACCAUCACAAGUGAUGAUACAAUCUGGCUUGGCCAUGGCGCCCAUUUUUCGCAAAGCUAUUCCCACUCCUAGCUCCUUCAUGUACUCAUCAAAGCCUUUGCUGUCCACCAGGCGCAACAGAGGAUUGAGCAUCA
B15: chr3:176740097:176740098:-_ENSG00000177565_ENST00000430069|hu_mus|hu_hu_hu_mus_True|8_78 (ssRNA)
RNA: GGGAGUUCUACAGUCCGACGAUCUGUUUUGUAUACCACAAAAGGAGGCACUUUCAGUAUCUGUAAAAGGUGUUUAGUCCUAAAACAUACUCACCUAGAGGAUAACUCAGGAAAACAAUCUGUUACACUAGUAUCUAUACUCCACAACAGAGGAUUGAGCAUCA
B16: chr2:47387770:47387771:-_ENSG00000143933_ENST00000272298|hu_mus|hu_hu_hu_mus_True|38_108 (ssRNA)
RNA: GGGAGUUCUACAGUCCGACGAUCAAGGUUUUAGGACAAUGACAGUAAGAUAAGGGAAGAAAACAUGGAGGAAUGAAGUCCUAAUUACUAUACAUGCAUAUUUUUUUACAGUAGGGGGGGGGAACCUUUUACAGAUAAGUUACACAACAGAGGAUUGAGCAUCA
B17: chr6:114274515:114274516:-_ENSG00000196591_ENST00000368632|hu_hu|motif|central (ssRNA)
RNA: GGGAGUUCUACAGUCCGACGAUCCAUUACACGAUCUGUUGUAUAAAAAGCUUCUUCAACACCAUCACCAUGAUGAAUAUCGGUAUCAAUAUAUAAGACUCUCUGAUGAUACUUUAGUAAUUCAAGGAUGGCAAGCACAAUAUCCAACAGAGGAUUGAGCAUCA
B18: 154715437_154725196_162_3pUTR_ENSMUSG00000042772_ENSMUST00000043560|mouse|control|control (ssRNA)
RNA: GGGAGUUCUACAGUCCGACGAUCCUGGUACAAGUCCUGCAGAGCUUGCCUGGAUGUCCAGACCUCAGCCGGACCCAGCUUAGAAUCUGUCAUUUCAGCCUUCAGGACUUCUGCCUGCCUAAUAUUACUUGAUUUCAGAUGCUCCAACAGAGGAUUGAGCAUCA
B19: chr2:99204607:99204608:+_ENSG00000040933_ENST00000545415|hu_hu|FALSE|FALSE (ssRNA)
RNA: GGGAGUUCUACAGUCCGACGAUCGGUAGUGUAGAUAGGAUAAUUCACUAGAACCCGUUAUUCUCACUGCAUGAGAUAGUGCUAGCUUCUUUCCCCAAAUAACAUUUAUUGGUAUGCCUAGGAUCCAAUUAUUUAAUUUAUUAUCAACAGAGGAUUGAGCAUCA
B20: chr16:75661828:75661829:-_ENSG00000065427_ENST00000302445|hu_hu|motif|central (ssRNA)
RNA: GGGAGUUCUACAGUCCGACGAUCUAUUAUUUUCUAGACAGAAGUGCCAACUGUUGUGCUUUCCAGUGUAUCAGUGGUUGCGGCAUUCUCCUUCUUGUCUUCGGGUUUCAUGGCAGGAAACAGAAGUACUUCCUUGAUGUUGUUCAACAGAGGAUUGAGCAUCA
B21: chr6:170852807:170852808:-_ENSG00000008018_ENST00000262193|hu_hu|FALSE|FALSE (ssRNA)
RNA: GGGAGUUCUACAGUCCGACGAUCGAUUGUAGACAGCAUUGCAGCAAUUGCCCCCGUAGUCAUGGCCUUAUUAUUGGAAUGCUUAUACAUCUUUAGUCUUGCUUCAAUAAUCUUUGUCAGCGUAAGACAGUCUCCAUGAAAACCCAACAGAGGAUUGAGCAUCA
B22: chr7:148615726:148615727:-_ENSMUSG00000019082_ENSMUST00000106007|mus_hu|FALSE|FALSE (ssRNA)
RNA: GGGAGUUCUACAGUCCGACGAUCUCUGACAUGACAAGACACAAAAAGUUACAACUUCUUAAAACUCUUCAAAAGAAAAAAAUAUAAUUCUGUAAGCAGCAGCAGCAGCUUCCAAGGUUCUGAUGUGACGGGAGGGGCAGCUCCCAACAGAGGAUUGAGCAUCA

Target: T1, UNK ZnF1-3
Assay: nsRBNS (natural sequence RNA bind-n-seq); RBNS binding buffer (assumed for nsRBNS): 25 mM Tris pH 7.5, 150 mM KCl, 3 mM MgCl2, 0.01% Triton X-100, 500 ug/ml BSA, 20 U/ml SUPERase-In, 4 C; UNK is unkempt and MSI1 is Musashi-1; names of the RNAs are library labels; protein concentration not given here; high values mean tight binding

Compared with B1, B2 is higher in binding signal: 1.26 enrichment R for the first, 1.69 enrichment R for the second.

First: B3
Second: B4
The binding signal of the first is higher: 0.665 enrichment R for the first, 0.408 enrichment R for the second.

Compared with B5, B6 is higher in binding signal: 0.61 enrichment R for the first, 0.871 enrichment R for the second.

First: B7
Second: B8
The binding signal of the first is lower: 0.931 enrichment R for the first, 2.86 enrichment R for the second.

First: B9
Second: B10
The binding signal of the first is lower: 0.874 enrichment R for the first, 0.88 enrichment R for the second.

Going from B11 to B12, the binding signal falls from 1.13 enrichment R to 0.978 enrichment R.

B13 and B14 are the same in binding signal: 0.745 enrichment R for the first, 0.745 enrichment R for the second.

Going from B15 to B16, the binding signal rises from 0.724 enrichment R to 2.02 enrichment R.

First: B17
Second: B18
The binding signal of the first is higher: 1.23 enrichment R for the first, 0.456 enrichment R for the second.

Going from B19 to B20, the binding signal falls from 0.586 enrichment R to 0.512 enrichment R.

Going from B21 to B22, the binding signal rises from 1.17 enrichment R to 1.42 enrichment R.
